# Source: the supplement of paper PMC11417369
# The other results are listed elsewhere or left out.
# Test system: PfAP2-HC AP2 domain (GST-tagged)
# Assay: gcPBM binding intensity (ln(normalized median fluorescence intensity)); higher = stronger DNA binding
# How it was run: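 GST-tagged P. falciparum DNA-binding domains produced in E. coli were incubated for 1 h on an Agilent 4 × 180k array of primer-extended double-stranded 36-bp intergenic genomic probes with negative controls. Binding intensity is the highest Masliner-normalised natural-log median intensity across replicate spots of either probe orientation, with bound protein detected by Alexa488 anti-GST antibody at 488 nm.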
row,Sequence,gcPBM binding intensity (ln)
1,TAAAAATCCACAAGCACACAAATGTACATATATATA [CACACA_site2462],9.88
2,AATTTTGTTAAAAGGACACACAATTCAATATATTAA [CACACA_site647],9.76
3,TACACGTTCTACATTTGTACTTAATTTATACATAAG [XGTACX_site1579],9.79
4,TACGTCTTTTTTTTGGTGCATAATTTTTTTGTACAA,9.65
5,GCTATTAATTTATAAGCACACAATATAAATATATAT [CACACA_site2251],9.6
6,ATTACATGATATATCACACACACATATAGATATATA [CACACA_site7352],10.8
7,TATGTCGACATTTAAAGTACAAAAAAAAAAAAAAAA [XGTACX_site8985],9.14
8,ATTTATTTAAACAAATCACACACAAATATATATACA [CACACA_site8622],10.1
9,TATATTAAAATATTCACACACTAACGTAAATCATTG [CACACA_site5520],9.74
10,AGAAAAGAGAAAAGTAGTACAAAGGATCATTTAAAA [XGTACX_site5294],9.59
11,TTAAGTCCGTTAACAGTGCATTTTTTCTTTTATGTA [GTGCAC_site9867],9.58
12,ATTAAAAAAATATAAACACACAAAAAAAAAATATAC [CACACA_site1100],10.4
13,TAATGAAAAAATAAAAGAATAAATAAATAAATAAAT [TGCATGCA_negctrl_site130],9.7
14,TATAAAAAGCATAACACACACATGTCAATATATATA [CACACA_site1111],10.4
15,ATAGAACAGAAAAGGCGTACAATAATATGTAAACAA [XGTACX_site2828],9.77
16,AAAAAAAAAATATGTACACACATATATAATACATAA [CACACA_site1639],10.1
17,TATAAATTTAAAATGACACACACTAAAATTATTTAA [CACACA_site1239],10.2
18,TATATATATATATATATATATATATATATATGTATA [TGCATGCA_negctrl_site17],9.35
19,GTATTATTATTATGCACACAAAAATATTTATACATA [CACACA_site3656],9.77
20,CATATGTCTTGAGATCGTACGTTATTTTTTTTATTT [XGTACX_site1381],9.82
21,TGGTAAATTTACCGTTGTACATTCATTTATAACATT [XGTACX_site8910],9.62
22,AAAAATTATATATATATATATATATATATATGTATA [GTGCAC_negctrl_site488],9.48

row,Sequence,gcPBM binding intensity (ln)
1,AAGAATATTAATATAAATAAGTAAATAAATAAATAA [CACACA_negctrl_site417],9.74
2,ATATTCATTAACCACACACACAAAAAAAATAAAATT [CACACA_site3801],10.2
3,ATATATGTATTTAATACACACAAAACTTTCATTCCA [CACACA_site3531],9.85
4,TTTTTAGAAAGACATGCATGTAATAAAAATAAATAA [TGCATGCA_site685],9.82
5,ATACATATATGCTTCTGTACACATAATTTATAAAAA [XGTACX_site7000],9.5
6,ACATACACATATACATGTACATATATATATATATAT [XGTACX_site5082],9.99
7,CTATTTCAATTTAGTGCACACATTTTAATTTATAAG [CACACA_site2040],9.74
8,CATTATTATTAACATACACACGTGTTAAATACACCC [CACACA_site6118],9.85
9,TATGAAAAGATATATACACACATAATAAAGGTATAT [CACACA_site7713],10.1
10,ATTAAAACAAAATGTACACACATATCATTTAATGAC [CACACA_site6543],9.9
11,TTTTAATCTTAATTATGTACATATAAAATGTGTATA [XGTACX_site7382],9.61
12,TATAATGAGAAGATATAATATATAGGGGGTAATTCT [GTGCAC_negctrl_site228],10.1
13,TTTTTTTCATAAGAAGCACACAAAAAATGATAGAGA [CACACA_site8401],9.64
14,ATATATATATATATATGTACTTATTTGTATAAATAC [XGTACX_site8031],9.77
15,TAGATTTTTATGCGTGCACACATTTAAAAAAAAAAC [CACACA_site3421],9.98
16,ATACCTACATACATACGTACATATATATATATAATG [XGTACX_site234],9.75
17,TTTTAATAAATTCAAAACATAAAAAGGAAAAAAAAA [XGTACX_negctrl_site471],9.44
18,AAATATAATAACATAACACACACATGTATTTATAGG [CACACA_site8009],10
19,TATTGGAAAATTAGAAGTACTTTCATATATTAGACT [XGTACX_site4503],9.49
20,TTTTTATTATTCCATAGTACAGAAAAAATGATATAT [XGTACX_site3431],9.2
21,ATTCTTTATTATTCGCCACACACATATATATATATA [CACACA_site9009],10.1
22,TGTAGTCTGGAGAAAAGTACACAGTATCTGGTAACC [XGTACX_site2033],9.62

row,Sequence,gcPBM binding intensity (ln)
1,ATATAGAATAAAACTATACACACCTATATTTAAACA [CACACA_site1902],10.1
2,ATATAAAAAAATAATAAATAAATAAAAAGATTTCTT [XGTACX_negctrl_site110],9.65
3,CTTGTATAGAAACACACACACACTTTCTTTTTTTAA [CACACA_site1964],10.2
4,TATATTAATAAAGGTACTACACGGAAATGGAAATAT [XGTACX_site7760],9.86
5,ATATTTTCCCTTGTTTTACACACGTGCTGATATGAG [CACACA_site8672],10.1
6,AATTTGAAATATGTGGTGCAGTTATATAATATGTTT [GTGCAC_site9885],9.92
7,TAATAAATAAATGACACACACACACGCAAAAAAAAA [CACACA_site7275],10.6
8,AACAAATACGAACACACACACACACTAAAAAAAAAA [CACACA_site6386],10.8
9,AGGATATAATACCATACACACATTTATAAAATAACA [CACACA_site1930],9.91
10,ATATATATTATATATATATATATATATATATATATA [CACACA_negctrl_site493],9.33
11,CACATTAATTTTTGGGTGCACTTGGGAAATTTTGGT,9.48
12,ATAATATGAAAACACACACACACACCCAAAAAAAAA [CACACA_site2011],10.6
13,TGTAATCAAAAAAATAGTACATAAATTGTGTATACT [XGTACX_site5908],9.7
14,ATTTTAGAATAAATTTTTTACATTAAAAAACTATTT [CACACA_negctrl_site1414],9.5
15,ACTCTCTTATATTAAACACACATATTTATAGGTATA [CACACA_site7302],9.78
16,GTATCAAAAGAATACACACACACATACATATATATA [CACACA_site3796],11.3
17,CATACAATAAATATGGTGCATTTTATGTAACCGTTT [GTGCAC_site9420],9.67
18,AAGGATATAACATACACACACACACGGATATAAATA [CACACA_site7867],11
19,TGAACATATTAAAATTGTACATATGCACAATATGTA [XGTACX_site6801],9.53
20,TATTTTATCATTTGCACACGCACACCGACATAAAAA [CACACA_site4348],9.97
21,CATCTAAATTGTAGTTGTACACCTTAATCTTATTAC [XGTACX_site7547],9.89
22,ATAAAAATATGATCAACACACGATTAAATATTCATA [CACACA_site1495],9.83

row,Sequence,gcPBM binding intensity (ln)
1,TGAAAAATAAATAAATGTACATATATATATATATAC [XGTACX_site7310],9.72
2,AGAAATACAAAATAAATATAAGAAACAAAATATTTA [CACACA_negctrl_site780],9.83
3,AAAAGGTTATCAATATGTACATATTTTTTTATTTTT [XGTACX_site3277],9.78
4,TTTTAATTAAAACACACACACACATATATATATATA [CACACA_site2291],10.6
5,TATTTCATCATATTGTGTACTTAATTTATATAATTA [XGTACX_site5753],9.72
6,TGATAATTTTTTACATGTACAAGTTTGTTTTTGCAT [XGTACX_site125],9.78
7,TTATCGGTATAATATAGTACATATAGATATATAATA [XGTACX_site1440],9.63
8,GATAAAATGGATGGATGTACATTATTTCCATATAAT [XGTACX_site7781],9.73
9,ATATTACTTCCTAAGTGTACAAGTAAGGAGAAAAAA [XGTACX_site3921],9.62
10,AGATGTTTTTATATATGTACTTAAATACACAAATAT [XGTACX_site8250],9.6
11,AAAAAAAAAAAAAACACACACACAAAATAAACAAAC [CACACA_site2720],10.8
12,AAAAAAAAAAAAATGTAATTTTTTAATTATTTATAT [GTGCAC_negctrl_site436],9.39
13,CATATATTTTTGTATAGTACTTTTTTTATTCGTTTT [XGTACX_site1860],9.66
14,ATAATGGAGAAATAAGCATGCATTATATTATAAAAA [TGCATGCA_site325],9.73
15,TAAAAGTTAATATAAACACACAAAAATTAATAAATA [CACACA_site6316],9.83
16,AATTTCTATTTTGTGAGTACATACTCCTATTATATA [XGTACX_site3210],9.76
17,TGAATATTTCTATATACACACATATAAATATAAATA [CACACA_site7593],9.61
18,TGAATAAATATATATACACACATATATGTATATATT [CACACA_site1642],9.77
19,TATATATATAATATATGTACATATTAATTATGTATA [XGTACX_site5366],9.56
20,GAGTTTACACTCCCTTGTACATATTCATTTTTATTC [XGTACX_site5208],10
21,GAATGCCTTGAAAATAGTACAATTAAGAAAAAATAC [XGTACX_site8002],9.64
22,TAAATAAATTTATACACACACACACCGATATATATA [CACACA_site4622],10.5
